Source: PubChem BioAssay AID1645887 (National Center for Advancing Translational Sciences (NCATS), 2021)
“And” between values parts separate entries of the source, which are not always exact repeats. Identical values can stand only once. Hit rate of the full screen: of about 16,000 compounds, about 40 (0.2%) were called active. Roughly 1% stayed inconclusive and do not appear here. Calls come from the whole dose curve; as a rule, active = well fitted activation curve with a large enough effect; inconclusive = small, poorly fitted or top-dose-only effect, or another doubt; inactive = no such curve, though single readings can be large or run the other way. The list shows a part of the results.

Molecular target: Rap guanine nucleotide exchange factor 4 (Homo sapiens) (UniProt Q8WZA2)
Experiment: Validation qHTS for agonist of cAMP-regulated guanine nucleotide exchange factor 4 (EPAC2);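 note: exchange makes BODIPY-GDP fluorescence drop when released from Rap1B; series mostly up to about 150 µM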
Conditions: EPAC2 Rap1B BODIPY-GDP exchange, fluorescence; activation: hits give high values
Description: Principle Investigator: Xiaodong Cheng Ph.D.
The University of Texas Medical Branch, […], TX
In multi-cellular eukaryotic organisms, the effects of cAMP are transduced by two ubiquitously-expressed intracellular cAMP receptors, the classic protein kinase A/cAMP-dependent protein kinase (PKA/cAPK) and the more recently discovered exchange protein directly activated by cAMP/cAMP-regulated guanine nucleotide exchange factor (EPAC/cAMP-GEF). Both PKA and EPAC are ubiquitously expressed in all tissues, and an increase in intracellular cAMP levels will lead to the activation of both PKA and EPAC. Therefore, careful dissections of the individual role and relative contribution of EPAC and PKA within the overall cAMP signaling in various model systems are critical for further elucidating the mechanism of cAMP signaling. To date no EPAC-specific antagonists and agonist, as well as isoform-specific agonists have been reported, and developing EPAC-specific pharmacological probes to determine the physiological functions that EPAC play in the overall cAMP-mediated signaling remains a major challenge within the research field. Furthermore, identified regulators of EPAC may lead to new mechanism-based therapeutic strategies specifically targeting the EPAC / cAMP-signaling components as EPAC has been implicated to play important roles in major human pathological conditions such as diabetes, heart disease, and cancer.
This qHTS will be used to screen the Molecular Libraries Small Molecule Repository (MLSMR) as a concentration-titration series using the NCGC unique quantitative screening (qHTS) platform to find activators for EPAC1. In addition, this assay will also be used as a counterscreen for the EPAC2 qHTS. This fluorescent based assay is developed and validated for EPAC1 that measures exchange using EPAC effector Rap1 complex with BODIPY-GDP, a GDP analog with a tethered fluorophores. Activators are identified by monitoring the change in fluorescence signal as the exchanged free BODIPY-GDP has a reduced fluorescence compared to Rap1-bound BODIPY-GDP. Increase in signal (activation) is the desired outcome for the EPAC1 agonist while no activity in this assay is desired for the EPAC2 agonist counterscreen.
[1] de Rooij, J., Zwartkruis, F. J., Verheijen, M. H., Cool, R. H., Nijman, S. M., Wittinghofer, A., and Bos, J.L. (1998) Nature 396, 474-477.
Briefly, three uL of reagents (100 nM EPAC2, 250 nM RAP1B-BODIPY-GDP, 50 uM GDP) were dispensed into a 1536-well Greiner black solid-bottom medium binding assay plate. Controls and test compounds (23 nL) were transferred to the plate via a Kalypsys pin tool equipped with a 1536-pin array. The plates were centrifuged at 1,000 rpm for 15 seconds followed by 5 minute incubation at room temperature. The assay plates were read at 5 minute intervals for 30 minutes in the ViewLux plate reader using 480nm excitation and 540nm emission filters. The results were normalized to the agonist positive control of 6.5 mM cAMP.
% is set by controls: 0 for no effect and ±100 for the full control effect.

Sequence of UniProt Q8WZA2 (Q8WZA2 whole entry, looked up): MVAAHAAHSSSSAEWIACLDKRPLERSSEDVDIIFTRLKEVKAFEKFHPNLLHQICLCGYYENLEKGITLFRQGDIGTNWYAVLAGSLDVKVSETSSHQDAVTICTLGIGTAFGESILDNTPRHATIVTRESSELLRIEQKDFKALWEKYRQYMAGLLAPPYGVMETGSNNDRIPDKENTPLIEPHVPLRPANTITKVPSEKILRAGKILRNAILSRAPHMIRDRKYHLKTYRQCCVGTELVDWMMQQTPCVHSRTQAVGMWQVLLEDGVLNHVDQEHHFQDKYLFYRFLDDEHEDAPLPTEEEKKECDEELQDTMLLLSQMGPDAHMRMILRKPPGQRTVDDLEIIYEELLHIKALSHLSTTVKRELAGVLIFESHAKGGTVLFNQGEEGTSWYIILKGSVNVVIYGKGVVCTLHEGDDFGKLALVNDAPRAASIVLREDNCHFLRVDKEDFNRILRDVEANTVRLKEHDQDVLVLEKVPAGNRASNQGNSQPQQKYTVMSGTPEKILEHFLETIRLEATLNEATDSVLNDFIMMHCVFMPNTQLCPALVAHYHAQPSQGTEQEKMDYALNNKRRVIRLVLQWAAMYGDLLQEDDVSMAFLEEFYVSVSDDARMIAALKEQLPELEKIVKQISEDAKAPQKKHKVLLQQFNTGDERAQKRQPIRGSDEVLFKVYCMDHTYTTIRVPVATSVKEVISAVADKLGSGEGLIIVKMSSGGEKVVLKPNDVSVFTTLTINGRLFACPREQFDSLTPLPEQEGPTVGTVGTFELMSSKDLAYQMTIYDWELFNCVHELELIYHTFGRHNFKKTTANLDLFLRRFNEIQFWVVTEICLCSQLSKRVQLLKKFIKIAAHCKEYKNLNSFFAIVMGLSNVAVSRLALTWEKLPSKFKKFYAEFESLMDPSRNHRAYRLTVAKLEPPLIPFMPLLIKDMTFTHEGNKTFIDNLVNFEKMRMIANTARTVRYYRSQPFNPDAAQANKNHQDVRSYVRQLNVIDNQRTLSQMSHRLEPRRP

activation, inactive:
COc1ccc(Oc2ncc3nc(-c4cn(C)c5ccccc45)c(=O)n(C4CC4)c3n2)cc1 -1.65%
COC(c1ccc2c(c1)CN(C(=O)Cn1nc(C)c3ccccc3c1=O)CCO2)C1CCCCC1 (stereo not drawn) -14.5%
OC[C@H]1O[C@@](CO)(O[C@H]2O[C@H](CO)[C@@H](O)[C@H](O)[C@H]2O)[C@@H](O)[C@@H]1O -13.5%
CC(=O)NCCNc1ncnc2ccc(-c3ccoc3)cc12 -18.2%
COc1ccc2c(c1)OCC(Cc1ccc(OC)c(OC(C)=O)c1)C2=O (stereo not drawn) -8.42%
COC(=O)C[C@H]1c2cc(C(F)(F)F)ccc2S(=O)(=O)N1C(C)(C)C -37.2%
COc1cccc(CNC(=O)c2c(OC)cc(=O)n3c2CCN(C(=O)C2CC24CCCC4)CC3)c1 (stereo not drawn) -16.3%
O=C(c1cccc(F)c1)N1CCC2(CCCN(C(c3ccccc3)c3ccccc3)C2)CC1 -16.6%
COc1ccc(-n2c(=O)c(C)nc3cnc(N(C)C)nc32)cc1 -8.07%
O=C1C(=O)c2ncccc2-c2cccnc21 -6.56%
OCCOCCN1CCN(C(c2ccccc2)c2ccc(Cl)cc2)CC1 (stereo not drawn) -8.4%
C[C@]12CCC(=O)C[C@@H]1CC[C@@H]1[C@@H]2CC[C@]2(C)C=CC[C@@H]12 10%
O=C(O)c1ccc2c3c1cccc3c(=O)n1c3ccccc3nc21 -2%
O=C(Nc1cccc(F)c1)N1CC[C@@]2(CCCN(C(=O)c3csnn3)C2)C1 -9.14%
CC(=O)Oc1c(C)c(C)c2c(c1C)CCC(C)(CCCC(C)CCCC(C)CCCC(C)C)O2 (stereo not drawn) -11.6% and -7.26%
COc1ccc(C(=O)N2CCC3(CCN(Cc4ccc(C#N)cc4)CC3)CC2)cc1 -8.12%
COC(=O)c1ccc(C(=O)NCC2Cc3cc(F)cc(-c4cncnc4)c3O2)cc1 (stereo not drawn) -5.56%
Cc1cccc2c3c(ccc12)C1=C(C(=O)C3=O)C(C)CO1 (stereo not drawn) -37.5%
CCCCCCCCCCCC(=O)OC[C@@H](O)C1OC[C@H](O)[C@H]1O (stereo partly drawn) -67.6%
Nc1cccc2c1CN(C1CCC(=O)NC1=O)C2=O (stereo not drawn) -9.46%
CCCCCCCCCCCCCCCC(C)C1=NCCN1 (stereo not drawn) -12.9%
O=C(c1ccc(Cl)cc1)N1CCN(c2ccc([N+](=O)[O-])c3ncccc23)CC1 -40.2%
COC(=O)[C@@H]1N2C(=O)[C@@H](NC(=O)C(C)Oc3ccccc3)[C@H]2SC1(C)C (stereo partly drawn) -7.96%
